Experimental data reported in article PMC6919601, “Identification of Plasmodium dipeptidyl aminopeptidase allosteric inhibitors by high throughput screening” (PLoS ONE, 2019).
In all, about 110,000 compounds went through this assay and about 230 (0.21%) showed an effect of 50% or more. This is one part of the list.

Target: DPAP1 (Plasmodium falciparum, UniProt Q8IIJ9)
Assay: primary screen, percent inhibition; read by cleavage of a fluorogenic dipeptide substrate; higher = more effect of the substance
Set-up: species or system P. falciparum D10 trophozoite lysates; single well
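Note: 30 min substrate incubation versus DMSO and 10 µM JCP410 controls.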

Sequence of DPAP1 (Q8IIJ9 whole entry, looked up): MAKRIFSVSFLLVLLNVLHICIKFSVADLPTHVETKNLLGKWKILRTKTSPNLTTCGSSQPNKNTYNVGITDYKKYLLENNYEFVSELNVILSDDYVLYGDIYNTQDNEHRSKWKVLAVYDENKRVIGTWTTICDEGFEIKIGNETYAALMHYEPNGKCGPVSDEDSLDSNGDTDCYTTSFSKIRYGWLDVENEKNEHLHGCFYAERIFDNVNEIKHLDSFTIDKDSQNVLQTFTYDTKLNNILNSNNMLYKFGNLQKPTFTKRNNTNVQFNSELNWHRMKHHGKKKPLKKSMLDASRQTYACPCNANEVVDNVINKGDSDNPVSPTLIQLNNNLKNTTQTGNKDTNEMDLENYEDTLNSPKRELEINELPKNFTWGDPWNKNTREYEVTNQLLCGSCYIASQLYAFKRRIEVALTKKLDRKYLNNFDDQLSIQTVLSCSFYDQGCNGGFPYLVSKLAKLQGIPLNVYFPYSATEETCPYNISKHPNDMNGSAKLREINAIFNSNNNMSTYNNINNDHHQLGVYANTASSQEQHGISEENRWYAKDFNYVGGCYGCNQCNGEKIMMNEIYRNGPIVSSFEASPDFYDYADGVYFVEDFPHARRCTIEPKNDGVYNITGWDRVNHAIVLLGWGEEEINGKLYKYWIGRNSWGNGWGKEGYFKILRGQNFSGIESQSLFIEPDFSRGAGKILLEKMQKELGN

Question: For `CCOC(=O)N1CCC2(CC1)OC(=O)C(C)=C2C(=O)NCCCOC`, which “% Inhibition @ 10 uM” value is on record?
Answer: The value was -2.41%.

Question: With `COCc1cc(C)nc2sc3c(c12)NC(c1ccccc1C(=O)O)n1c-3nc2ccccc21` (centres unmarked) as the molecule, how does the “% Inhibition @ 10 uM” value read?
Answer: Its value is 4.19%.

Question: For `Cc1cc(C)c(S(=O)(=O)N2CCN(c3ccc(F)cc3)CC2)c(C)c1`, which “% Inhibition @ 10 uM” value is on record?
Answer: Its value is -6.86%.

Question: How did the “% Inhibition @ 10 uM” value turn out when `CCCCN1COc2ccc3c(-c4ccccc4)cc(=O)oc3c2C1` was run?
Answer: Its value is 3.61%.

Question: `CN(C)c1cc(NC(=O)Cc2ccccc2)c2ccccc2n1` was tested. Which “% Inhibition @ 10 uM” value did it give?
Answer: The value was -4.96%.

Question: With `O=c1c2cc3ccccc3n2cnn1Cc1ccccc1F` as the molecule, how does the “% Inhibition @ 10 uM” value read?
Answer: Its value is 1.72%.

Question: `N#C/C(=C\c1ccc2c(c1)OCO2)C(=O)NC1CCS(=O)(=O)C1` (centres unmarked) was tested. Which “% Inhibition @ 10 uM” value did it give?
Answer: Its value is -9.6%.

Question: `CC1=C(C(=O)Nc2ccccn2)C(c2ccc(C(C)C)cc2)n2ncnc2N1` (centres unmarked) was tested. Which “% Inhibition @ 10 uM” value did it give?
Answer: Its value is 2.32%.

Question: `N#CC1=C(N)Oc2[nH]nc(-c3ccccc3)c2C1c1cccs1` (centres unmarked) was tested. Which “% Inhibition @ 10 uM” value did it give?
Answer: Its value is 4.39%.

Question: Which “% Inhibition @ 10 uM” value does the source give for `O=C(Cc1ccccc1)NCc1ccco1` here?
Answer: The value was -4.4%.

Question: How did the “% Inhibition @ 10 uM” value turn out when `Cc1ccc(C)c(NC(=O)Nc2ccc(Cl)cc2)c1` was run?
Answer: The value was -4.04%.

Question: How did the “% Inhibition @ 10 uM” value turn out when `Cn1c(=O)c2c(nc(Cl)n2Cc2ccc(F)cc2Cl)n(C)c1=O` was run?
Answer: Its value is 1.64%.

Question: Which “% Inhibition @ 10 uM” value does the source give for `COc1ccc(S(=O)(=O)N(CC(=O)NC2CCCCCC2)c2ccccc2)cc1OC` here?
Answer: Its value is -2.21%.

Question: How did the “% Inhibition @ 10 uM” value turn out when `Brc1ccc(/C=N/n2cnnc2)o1` was run?
Answer: Its value is -5.7%.

Question: Which “% Inhibition @ 10 uM” value does the source give for `Oc1nc2ccccc2nc1-c1ccccc1NCc1ccc(F)cc1` here?
Answer: The value was 5.68%.

Question: Which “% Inhibition @ 10 uM” value does the source give for `CC(C)NCC(O)COc1ccc(C(C)(C)C)cc1` (centres unmarked) here?
Answer: The value was 3%.

Question: For `COc1ccc2nc(N3CCCC(C(=O)NCCCN4C(C)CCCC4C)C3)sc2c1` (centres unmarked), which “% Inhibition @ 10 uM” value is on record?
Answer: The value was -2.12%.

Question: How did the “% Inhibition @ 10 uM” value turn out when `CCN1CCN(C(=O)c2ccc(NS(=O)(=O)c3c(C)c(C)cc(C)c3C)cc2)CC1` was run?
Answer: The value was -2.85%.

Question: `COc1ccc(Cl)cc1-c1noc(-c2ccc3c(c2)OCO3)n1` was tested. Which “% Inhibition @ 10 uM” value did it give?
Answer: The value was -0.671%.

Question: For `CNS(=O)(=O)c1ccc(N2CCCC2=O)cc1`, which “% Inhibition @ 10 uM” value is on record?
Answer: The value was -0.128%.

Question: With `Cc1ccccc1CN(c1ccc(C(=O)N2CCC(C)CC2)cc1)S(C)(=O)=O` as the molecule, how does the “% Inhibition @ 10 uM” value read?
Answer: Its value is 2.05%.

Question: With `CCc1cccc(CC)c1NC(=O)CN1C(=O)c2ccccc2S1(=O)=O` as the molecule, how does the “% Inhibition @ 10 uM” value read?
Answer: The value was -7.94%.

Question: For `O=C(Nc1ccc(N2CCN(C(=O)c3cccs3)CC2)cc1)c1cccnc1Cl`, which “% Inhibition @ 10 uM” value is on record?
Answer: The value was -0.872%.

Question: `O=C(Nc1ccc(Cl)cc1Cl)c1ccc(C(=O)Nc2ccc(Cl)cc2Cl)cc1` was tested. Which “% Inhibition @ 10 uM” value did it give?
Answer: Its value is -0.856%.

Question: Which “% Inhibition @ 10 uM” value does the source give for `N#CCNC(=O)[C@H](CNS(=O)(=O)c1ccccc1)NC(=O)N1CCOCC1` here?
Answer: The value was -0.214%.

Question: Which “% Inhibition @ 10 uM” value does the source give for `Cc1ccc(OCc2nnc(NC(=O)c3ccccc3C)s2)c(C)c1` here?
Answer: Its value is 20.7%.

Question: Which “% Inhibition @ 10 uM” value does the source give for `CCCCc1c(C)nc2ccc(OC)cc2c1O` here?
Answer: Its value is 1%.

Question: `CN1CCN(C2CC(=O)N(c3ccc(Oc4ccccc4)cc3)C2=O)CC1` (centres unmarked) was tested. Which “% Inhibition @ 10 uM” value did it give?
Answer: The value was -4.15%.

Question: Which “% Inhibition @ 10 uM” value does the source give for `O=C(NCCCN1CCCC1=O)c1cc2c(O)nc3ccccc3c2s1` here?
Answer: The value was 1.23%.

Question: How did the “% Inhibition @ 10 uM” value turn out when `C=CCNC(=O)c1c(C)c(C(=O)OCC)n(Cc2ccccc2)c1C` was run?
Answer: The value was -3.44%.

Question: How did the “% Inhibition @ 10 uM” value turn out when `COc1ccc(-c2ccccc2)cc1NCc1c(F)cccc1Cl` was run?
Answer: The value was -4.14%.

Question: For `COC1=CCC2=C(CCNC2Cc2ccc(O)cc2)C1` (centres unmarked), which “% Inhibition @ 10 uM” value is on record?
Answer: Its value is 2.5%.

Question: `CCOC(=O)C1=C(CS(=O)(=O)c2ccc(C)c(C)c2)NC(=O)NC1c1ccc(F)cc1` (centres unmarked) was tested. Which “% Inhibition @ 10 uM” value did it give?
Answer: Its value is 4.41%.

Question: How did the “% Inhibition @ 10 uM” value turn out when `CN(CCNC(=O)C1CCN(S(=O)(=O)c2cccc3nonc23)CC1)Cc1ccccc1` was run?
Answer: The value was 3.5%.

Question: Which “% Inhibition @ 10 uM” value does the source give for `Cc1ccc(OCC(=O)Nc2ccc(CN3CCCCC3)cc2)cc1` here?
Answer: The value was -3.49%.

Question: How did the “% Inhibition @ 10 uM” value turn out when `Cc1cc(C)nc(SCCC(=O)Nc2ccccc2)n1` was run?
Answer: The value was -3.45%.

Question: For `CCOC(=O)C1=C(CS(=O)(=O)c2ccc(C)c(C)c2)NC(=O)NC1c1ccc(C)cc1` (centres unmarked), which “% Inhibition @ 10 uM” value is on record?
Answer: Its value is -5.79%.

Question: `CCOc1cc(C2Nc3ccc4ccccc4c3C3=C2C(=O)CC(C)(C)C3)ccc1O` (centres unmarked) was tested. Which “% Inhibition @ 10 uM” value did it give?
Answer: The value was 9.67%.

Question: How did the “% Inhibition @ 10 uM” value turn out when `O=C(NCCCN1CCOCC1)C1CCN(S(=O)(=O)N2CCCCC2)CC1` was run?
Answer: Its value is -3.12%.

Question: For `COc1cc(OC)c(CN2CCCC2)cc1Br`, which “% Inhibition @ 10 uM” value is on record?
Answer: The value was -7.56%.

Question: For `Cc1ccc(C(=O)CCC(=O)Nc2ccccc2C)cc1C`, which “% Inhibition @ 10 uM” value is on record?
Answer: Its value is -0.478%.

Question: For `COc1ccccc1C1CC2=NC(C)=C(C(=O)OC(C)C)C(c3cccs3)C2=C(O)C1` (centres unmarked), which “% Inhibition @ 10 uM” value is on record?
Answer: Its value is -5.01%.

Question: For `Nc1n[nH]c(Cc2n[nH]c(N)n2)n1`, which “% Inhibition @ 10 uM” value is on record?
Answer: Its value is 1.84%.

Question: `O=C(NC1CC1)C1CSC(c2cccnc2)=N1` (centres unmarked) was tested. Which “% Inhibition @ 10 uM” value did it give?
Answer: The value was 1.27%.

Question: `COCCNC(=O)c1ccccc1F` was tested. Which “% Inhibition @ 10 uM” value did it give?
Answer: The value was -1.15%.

Question: How did the “% Inhibition @ 10 uM” value turn out when `COc1ccc(OC)c(S(=O)(=O)NCc2ccccn2)c1` was run?
Answer: Its value is 5.67%.

Question: How did the “% Inhibition @ 10 uM” value turn out when `N#CC1=C(N)Oc2c(ccc3ccccc23)C1c1ccccc1C(F)(F)F` (centres unmarked) was run?
Answer: The value was -4.04%.

Question: How did the “% Inhibition @ 10 uM” value turn out when `C/C(Cl)=C\CSc1nc2c(c(=O)[nH]c(=O)n2C)n1Cc1cccc(Br)c1` was run?
Answer: Its value is 11.6%.

Question: With `O=C(Nc1nccs1)c1ccc2c(c1)CC(c1ccccc1)OC2=O` (centres unmarked) as the molecule, how does the “% Inhibition @ 10 uM” value read?
Answer: Its value is 3.81%.

Question: With `N#CCCn1c(-c2ccccc2)cc2ccccc21` as the molecule, how does the “% Inhibition @ 10 uM” value read?
Answer: Its value is -8.3%.
